# The other results are listed elsewhere or left out. The energies were worked out here from pooled read counts, against the library average; single values are noisy.
# Biological target: T1, Pho4 (S. cerevisiae) (UniProt P07270)
# T1 sequence: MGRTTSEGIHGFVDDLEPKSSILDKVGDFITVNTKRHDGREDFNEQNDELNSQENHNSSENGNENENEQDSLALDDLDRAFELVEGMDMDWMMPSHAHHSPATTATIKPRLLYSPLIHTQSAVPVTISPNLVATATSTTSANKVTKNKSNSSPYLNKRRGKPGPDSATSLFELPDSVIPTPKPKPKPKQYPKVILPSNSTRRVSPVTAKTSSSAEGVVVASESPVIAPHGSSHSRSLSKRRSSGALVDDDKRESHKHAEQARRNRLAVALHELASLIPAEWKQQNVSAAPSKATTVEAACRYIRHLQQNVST
# Test: relative binding free energy (BET-seq); higher = weaker binding
# Details: reference: library average
row,Sequence,relative binding free energy [kcal/mol]
1,TGTCGCACGTGGAGCG,0
2,GGCCACACGTGTGGGT,0.03
3,AGGAGCACGTGGGCGG,-0.25
4,TTGTACACGTGGCATG,-0.09
5,CGCTGCACGTGGATGG,0.09
6,GGGTTCACGTGAATAT,0.45
7,CTGTTCACGTGTGTGT,0.17
8,GGTCTCACGTGGGTCG,0.19
9,GTCAACACGTGGGTAG,-0.06
10,GGGCGCACGTGTTGAG,0.06
11,GATCTCACGTGATGTT,0.4
12,ATTGTCACGTGATCTG,0.12
13,AAAAGCACGTGTGAGG,-0.07
14,CCTGGCACGTGAAGGT,0.13
15,GCTTACACGTGGGGTA,-0.12
16,AGGGCCACGTGGGGCA,-0.3
17,TATTGCACGTGGATTG,0.06
18,TATCGCACGTGGATGG,-0.04
19,TGTATCACGTGGAGTT,0.24
20,TGGGCCACGTGGAGGA,-0.11
21,GTCGGCACGTGGTTTG,-0.14
22,GTATACACGTGATCTT,0.31
23,TTATTCACGTGGATCT,0.21
24,CGTTACACGTGAGGTA,0.24
25,GATGGCACGTGCGTGT,-0.08
26,CTTTACACGTGGTTAT,0.06

row,Sequence,relative binding free energy [kcal/mol]
1,GCTTTCACGTGGTGGA,0.23
2,GTGGGCACGTGTTAAT,0.05
3,GGAGCCACGTGCGTGG,-0.08
4,TTATTCACGTGCGGTA,0.27
5,TATATCACGTGGAAAG,0.32
6,ACGGTCACGTGAATTT,0.37
7,TGTGTCACGTGGGGGT,-0.03
8,ATGTACACGTGCTGGA,0.11
9,TAATGCACGTGGGGAT,-0.23
10,TTGTACACGTGGTTAA,0.05
11,ATGGGCACGTGCAGTT,-0.12
12,GTATACACGTGCGTTA,-0.05
13,TCTTGCACGTGTTCTG,0.04
14,TGGGTCACGTGGGGCC,0.11
15,GTGTGCACGTGGGTTT,-0.02
16,TTCGTCACGTGAGAGG,0.26
17,GTGTGCACGTGCAGTA,-0.09
18,TGCTGCACGTGTCTTT,-0.07
19,CACGTCACGTGTGTGG,0.09
20,TGAGGCACGTGGAAAG,0.09
21,AGTATCACGTGGGTGA,-0.07
22,GGAGACACGTGGGGTA,-0.1
23,ACGGGCACGTGTTTCG,-0.05
24,AGGTCCACGTGGTATT,-0.01
25,TTTAACACGTGGGGTG,-0.22
26,GGATTCACGTGGAGGA,0.19

row,Sequence,relative binding free energy [kcal/mol]
1,GGGCGCACGTGGGCCG,-0.14
2,TTAACCACGTGTGTGA,0.03
3,TTGTGCACGTGTTGAC,-0.01
4,ATGTTCACGTGGAGAG,0.28
5,GCTTGCACGTGTTGTA,0.08
6,CGCGGCACGTGGTGAT,-0.12
7,GACAGCACGTGTAGGG,-0.02
8,AGTGTCACGTGAGCTG,0.29
9,ATAGGCACGTGGCATT,-0.28
10,TTAGCCACGTGGTATT,-0.19
11,ATGGTCACGTGTTCGT,0.11
12,AAGGGCACGTGTGATC,-0.04
13,GTCGTCACGTGAGGCG,0.28
14,ATGTGCACGTGGATTG,0.02
15,TGTGGCACGTGTTGGC,-0.08
16,AAGGGCACGTGATAGG,-0.07
17,AGTATCACGTGATTTC,0.34
18,TGTGGCACGTGCGAAA,0.03
19,TCAATCACGTGGGTGT,0.07
20,GGCTACACGTGAGGTA,0.35
21,ACTTGCACGTGCGTGT,-0.05
22,TTAGGCACGTGTTGCT,-0.03
23,GTGGACACGTGGTGGT,0.06
24,TCATTCACGTGGGGCG,0.25
25,AGGTTCACGTGGTTCT,0.15
26,GTTGTCACGTGTTGAA,0.16

row,Sequence,relative binding free energy [kcal/mol]
1,GTGTGCACGTGTTTCG,0.01
2,ATGCTCACGTGTGTTT,0.19
3,ATCGTCACGTGGGGAG,-0.05
4,TTGTGCACGTGAGAGG,0.27
5,TTATACACGTGCGCTT,0.08
6,GGAGTCACGTGTTGGC,0.07
7,ATAATCACGTGTGTTA,0.11
8,AAGAGCACGTGTATGG,-0.12
9,TATGGCACGTGTTGCA,-0.16
10,TCGTTCACGTGGGCAG,0.06
11,AATATCACGTGGGAAG,0.01
12,CTTGTCACGTGAGGTT,0.19
13,AGATGCACGTGCTGAT,0.1
14,TTTAACACGTGTTATT,0.11
15,TGTCACACGTGTAAGT,0.07
16,GAGTCCACGTGGGGCT,-0.02
17,TTTCGCACGTGGGATG,-0.2
18,GGGCTCACGTGGAATG,0.3
19,GGTGGCACGTGGAATT,0
20,TTGCACACGTGGTGGA,-0.09
21,GTCTACACGTGCGTGG,0.07
22,GATGGCACGTGACGGG,0.11
23,GGGGTCACGTGCGTTG,0.11
24,CAGGTCACGTGTGGAG,0.16
25,AAGCACACGTGTTGGG,0.15
26,CTGCGCACGTGGGTGC,-0.2

row,Sequence,relative binding free energy [kcal/mol]
1,GAGGTCACGTGGGGAT,0.06
2,ATTTTCACGTGTTAAA,0.02
3,ATGTCCACGTGTGGTC,0.23
4,AGGTCCACGTGGGTTA,-0.16
5,TTAGGCACGTGTATGC,-0.04
6,TTGGTCACGTGCATAT,0.11
7,GCGTTCACGTGTGTTT,0.32
8,GTCGGCACGTGAGTTG,0.16
9,GATGACACGTGAGATT,0.37
10,TTTTACACGTGTTTTA,0.12
11,TTGTACACGTGGGCTT,0.01
12,AGCTGCACGTGTGCGG,0.02
13,TATAGCACGTGTAGGG,0.01
14,TGTCGCACGTGTGGGG,0.03
15,CTCGGCACGTGTTGGT,-0.15
16,GGGCTCACGTGGTGTC,0.2
17,GAGTTCACGTGGGGTT,0.26
18,AGTATCACGTGTGTTT,0.2
19,GCTGGCACGTGTGGGA,0.14
20,TTAAGCACGTGTTTAG,-0.05
21,TGTAGCACGTGTGTGA,-0.11
22,TGTGGCACGTGGACGT,-0.05
23,ACTGGCACGTGGCTGG,-0.13
24,GTTGGCACGTGTGGCC,-0.07
25,TATTACACGTGTGGGT,0.2
26,GGGGTCACGTGGAATA,0.14

row,Sequence,relative binding free energy [kcal/mol]
1,TGCCGCACGTGGGGGA,-0.28
2,TATTGCACGTGATATA,0.01
3,TATTTCACGTGCTGAG,0.24
4,TGGGGCACGTGTAGAT,0.16
5,TGGGGCACGTGCAGCG,-0.08
6,TATGGCACGTGACGTG,-0.01
7,CTGTTCACGTGGCGCG,0.31
8,TGGAGCACGTGCATTG,-0.09
9,GTCTTCACGTGTTTAG,0.34
10,GGTGTCACGTGGAAAG,0.16
11,GGTTTCACGTGAGTCT,0.35
12,GTAGGCACGTGTAGTC,0
13,GGTAGCACGTGCGTTT,-0.01
14,TTGGGCACGTGTTCCT,-0.01
15,GGTAACACGTGGGTGC,-0.04
16,TGGGGCACGTGAGAGT,0.19
17,CATGGCACGTGGTATT,-0.16
18,TGTACCACGTGGGTTG,-0.26
19,TTGGGCACGTGATGGC,0.09
20,CGTGGCACGTGAAGGG,0.15
21,TAAGGCACGTGCGAGT,-0.15
22,AGATTCACGTGGTGGC,0.34
23,AGGGGCACGTGGAGAG,-0.17
24,AGTGTCACGTGCTGTT,0.1
25,GGTTGCACGTGCGTTA,-0.07
26,TCTAGCACGTGTTTAG,-0.14

row,Sequence,relative binding free energy [kcal/mol]
1,GGGAACACGTGGTCGT,0.11
2,GAGTACACGTGTTTCG,0.21
3,ATGTGCACGTGGTGGG,-0.07
4,CGACTCACGTGGTGTT,0.19
5,GTGTTCACGTGAAATT,0.38
6,TAAGTCACGTGATTTT,0.22
7,TATGACACGTGGTCGT,-0.15
8,GATGTCACGTGGATGT,0.24
9,AGTGTCACGTGGAATT,0.22
10,TGTTGCACGTGCGGAT,-0.06
11,GGTTTCACGTGATGAG,0.5
12,GCTTGCACGTGGGGAA,-0.11
13,CATATCACGTGTGGGT,0.14
14,GTTTCCACGTGCTTGG,0.07
15,GCGGGCACGTGTCGCT,0.1
16,ATGGTCACGTGCTAGG,-0.01
17,AAGGTCACGTGGCCTT,0.1
18,GAGGACACGTGGGGGT,-0.02
19,CCGGACACGTGAGGGG,0.15
20,CAATGCACGTGTAGGG,-0.03
21,AGCGTCACGTGTCGGG,0.12
22,TGTGCCACGTGAGTGT,-0.03
23,GGTCGCACGTGCTTGG,-0.08
24,TGTGTCACGTGTTGCG,0.09
25,GGGGGCACGTGCAAGT,0.01
26,TCGGGCACGTGCTGGT,-0.04

row,Sequence,relative binding free energy [kcal/mol]
1,CAGTACACGTGGGTGT,-0.08
2,TGGACCACGTGGGGCA,-0.16
3,GTTTTCACGTGGTTTC,0.26
4,GTCAACACGTGTTGGT,0.08
5,GAAGGCACGTGATTTG,0.15
6,GTGTTCACGTGGCTCG,0.16
7,CGTGCCACGTGCGGTG,0.06
8,GATGGCACGTGCTAGT,-0.09
9,GGGCGCACGTGCGGCG,-0.16
10,GTCATCACGTGGGTGT,0.17
11,AGATTCACGTGAGCTT,0.37
12,AGCTGCACGTGTGGCG,0.05
13,ATTCGCACGTGCTTTT,-0.08
14,AAAGTCACGTGTGTAT,0.21
15,TGTCACACGTGGTCTG,-0.03
16,ATGGGCACGTGTAGAA,-0.09
17,AGGGACACGTGTGGGA,-0.04
18,TGGGCCACGTGTAAAG,0.07
19,TTCTTCACGTGGGGTA,0.06
20,AGTATCACGTGGGAGT,0.12
21,TAGGACACGTGGGTTG,-0.03
22,ACGGTCACGTGGGTTT,0
23,GGGGACACGTGGGTAA,0
24,TATAACACGTGGGTAG,-0.14
25,CTGATCACGTGATTGT,0.21
26,TGTATCACGTGTCAAG,0.07

row,Sequence,relative binding free energy [kcal/mol]
1,TTGGGCACGTGTCTTG,-0.02
2,GTTTGCACGTGGCGGT,-0.08
3,CTGAGCACGTGAGAGG,0.1
4,TGTTTCACGTGATTTG,0.34
5,GTGGTCACGTGCTTTG,0.16
6,AACGGCACGTGAGGGT,0.09
7,TTTTGCACGTGGTGTT,-0.04
8,AAATACACGTGGGGCG,-0.09
9,AGGATCACGTGCGTGT,0.24
10,GGATGCACGTGAGACG,0.23
11,CGGTGCACGTGTGCGA,-0.09
12,GGCGTCACGTGAAAGG,0.45
13,GTAAACACGTGTTTTG,0.13
14,TTTCGCACGTGCTGGA,-0.11
15,GGATTCACGTGCTGGG,0.34
16,AGAGGCACGTGGCGCG,-0.2
17,GTGTTCACGTGGTTCA,0.18
18,TGCTTCACGTGCGTGA,0.18
19,TGCTTCACGTGACGGG,0.23
20,GGGGTCACGTGGTGGA,0.09
21,TTTAGCACGTGGTTCA,-0.08
22,GGTTTCACGTGAAAGG,0.48
